Measured values: a collection of fitness landscapes (doi:10.1016/j.celrep.2020.107928)
Over roughly 81,000 sequences, “one-hybrid fitness for binding NBS DNA” has its median near -0.1; the highest 2% begin near 0.36. Some of the results follow.

B1: Caulobacter ParB omega fusion; a variant is named by its letters at X, in order, B8GW30 (parent)
chain: MESVVVGEPGMSEGRRGLGRGLSALLGEVDAAPAQAPGEQLGGSREAPIEILQRNPDQPRRTFREEDLEDLSNSIREKGVLQPILVRPSPDTAGEYQIVAGERAWRAAQRAGLKTVPIMVRELDDLAVLEIGIIENVQRADLNVLEEALSYKVLMEKFERTQENIAQTIGKSXSHVANXMRLLXLPDEVQSYLVSGELTAXHARAIAAAADPVALAKQIIEGGLSVRETEALARKAPNLSAGKSKGGRPPRVKDTDTQALESDLSSVLGLDVSIDHRGSTGTLTITYATLEQLDDLCNRLTRGI

Variants of: B1
Assay: one-hybrid fitness for binding NBS DNA (the Noc-binding site; scaled: cognate 1, non-cognate 0); higher = stronger binding
Settings: with NBS DNA site
In short: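 Fitness is the rescaled log change in variant-to-wild-type read ratio, measured by Illumina sequencing of plasmids before and after bacterial one-hybrid selection. The scale puts cognate at 1 and non-cognate at 0. Selection of Caulobacter ParB libraries, four specificity codons randomised, took place in E. coli USO with a HIS3 reporter, site 19 bp from the promoter, over 48 hours at 37°C on M9-minus-histidine with 0.1 mM IPTG and 5 mM 3-AT.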

Row | Variant | one-hybrid fitness for binding NBS DNA
1 | KPES | ≤ 0.2
2 | PSHM | ≤ 0.2
3 | PQER | ≤ 0.2
4 | HLWL | ≤ 0.2
5 | YWST | ≤ 0.2
6 | EMVR | ≤ 0.2
7 | LLML | ≤ 0.2
8 | GQPY | ≤ 0.2
9 | SITV | ≤ 0.2
10 | NTTA | ≤ 0.2
11 | GLDT | ≤ 0.2
12 | NQHS | ≤ 0.2
13 | HMLS | ≤ 0.2
14 | FLNV | ≤ 0.2
15 | HSPC | ≤ 0.2
16 | HGTR | ≤ 0.2
17 | WVPF | ≤ 0.2
18 | ALKT | ≤ 0.2
19 | YHLG | ≤ 0.2
20 | PDRS | ≤ 0.2
21 | SMGL | ≤ 0.2
22 | HDHC | ≤ 0.2
23 | DNFR | ≤ 0.2
24 | SFAW | ≤ 0.2

Row | Variant | one-hybrid fitness for binding NBS DNA
25 | WCRC | ≤ 0.2
26 | DNAR | ≤ 0.2
27 | PRSL | ≤ 0.2
28 | RWVD | ≤ 0.2
29 | PITG | ≤ 0.2
30 | GGKT | ≤ 0.2
31 | WRRM | ≤ 0.2
32 | LHDI | ≤ 0.2
33 | QRIC | 0.303
34 | NILN | ≤ 0.2
35 | TNGS | ≤ 0.2
36 | AHYS | ≤ 0.2
37 | PAFW | ≤ 0.2
38 | ACLG | ≤ 0.2
39 | SPQI | ≤ 0.2
40 | EPET | ≤ 0.2
41 | ATFW | ≤ 0.2
42 | NARA | ≤ 0.2
43 | ARVN | ≤ 0.2
44 | RCSS | 0.522
45 | HMNI | ≤ 0.2
46 | CMNF | ≤ 0.2
47 | MVRL | ≤ 0.2
48 | PLIC | ≤ 0.2

Row | Variant | one-hybrid fitness for binding NBS DNA
49 | QEHI | ≤ 0.2
50 | DREK | ≤ 0.2
51 | FTPM | ≤ 0.2
52 | PCWL | ≤ 0.2
53 | TRTY | ≤ 0.2
54 | AQHY | ≤ 0.2
55 | YGQV | ≤ 0.2
56 | HIQS | ≤ 0.2
57 | AILA | ≤ 0.2
58 | QVTG | ≤ 0.2
59 | STAI | ≤ 0.2
60 | CLCA | ≤ 0.2
61 | ADGL | ≤ 0.2
62 | QTSG | ≤ 0.2
63 | HNER | ≤ 0.2
64 | GMMS | ≤ 0.2
65 | TSLV | ≤ 0.2
66 | FMIS | ≤ 0.2
67 | EQCE | ≤ 0.2
68 | RNRM | ≤ 0.2
69 | QVHT | 0.373
70 | TDQG | ≤ 0.2
71 | SGRD | ≤ 0.2
72 | AHDL | ≤ 0.2

Row | Variant | one-hybrid fitness for binding NBS DNA
73 | FHKP | ≤ 0.2
74 | RVHP | ≤ 0.2
75 | LTSQ | ≤ 0.2
76 | WMHA | ≤ 0.2
77 | DTVM | ≤ 0.2
78 | RPRA | ≤ 0.2
79 | LRSD | ≤ 0.2
80 | HGKA | ≤ 0.2
81 | LQYR | ≤ 0.2
82 | SHST | ≤ 0.2
83 | KVNL | ≤ 0.2
84 | QMAD | ≤ 0.2
85 | SIPL | ≤ 0.2
86 | LWKY | ≤ 0.2
87 | CSWR | ≤ 0.2
88 | KRLM | ≤ 0.2
89 | QSTH | ≤ 0.2
90 | GQHV | ≤ 0.2
91 | GDSR | ≤ 0.2
92 | FSDE | ≤ 0.2
93 | GEMR | ≤ 0.2
94 | SCFP | ≤ 0.2
95 | GKFS | ≤ 0.2
96 | WRPD | ≤ 0.2

Row | Variant | one-hybrid fitness for binding NBS DNA
97 | LSWC | ≤ 0.2
98 | MILM | ≤ 0.2
99 | VANM | ≤ 0.2
100 | PGPN | ≤ 0.2
101 | QNTA | ≤ 0.2
102 | CAHG | ≤ 0.2
103 | GMYC | ≤ 0.2
104 | VCST | ≤ 0.2
105 | IIES | ≤ 0.2
106 | GVPV | ≤ 0.2
107 | LSTA | ≤ 0.2
108 | DTQY | ≤ 0.2
109 | RMWM | ≤ 0.2
110 | QFEL | ≤ 0.2
111 | WRPR | ≤ 0.2
112 | PISA | ≤ 0.2
113 | SIYS | ≤ 0.2
114 | NTAT | ≤ 0.2
115 | LFQT | ≤ 0.2
116 | QNPT | ≤ 0.2
117 | GVES | ≤ 0.2
118 | LITT | ≤ 0.2
119 | QYRA | 0.558
120 | MGSC | ≤ 0.2

Row | Variant | one-hybrid fitness for binding NBS DNA
121 | SRGL | ≤ 0.2
122 | VQRM | ≤ 0.2
123 | LYDS | ≤ 0.2
124 | KLYT | ≤ 0.2
125 | LQKW | ≤ 0.2
126 | GCNG | ≤ 0.2
127 | SGIV | ≤ 0.2
128 | WLCT | ≤ 0.2
129 | PAKP | ≤ 0.2
130 | HNAA | ≤ 0.2
131 | WSDV | ≤ 0.2
132 | QRCH | 0.52
133 | SKRF | ≤ 0.2
134 | RIAT | 0.376
135 | PTML | ≤ 0.2
136 | DIYD | ≤ 0.2
137 | NNPD | ≤ 0.2
138 | APRY | ≤ 0.2
139 | PVHS | ≤ 0.2
140 | YFRR | ≤ 0.2
141 | PPWG | ≤ 0.2
142 | VVVY | ≤ 0.2
143 | QWYG | ≤ 0.2
144 | YHSF | ≤ 0.2

Row | Variant | one-hybrid fitness for binding NBS DNA
145 | RKYP | ≤ 0.2
146 | KRGW | ≤ 0.2
147 | KVPL | ≤ 0.2
148 | AVHL | ≤ 0.2
149 | MACR | ≤ 0.2
150 | WSYS | ≤ 0.2
151 | KCRN | ≤ 0.2
152 | KLGK | ≤ 0.2
153 | RLNH | 0.201
154 | MDKE | ≤ 0.2
155 | QYPH | ≤ 0.2
156 | MLKK | ≤ 0.2
157 | PEPY | ≤ 0.2
158 | GLEA | ≤ 0.2
159 | GLAS | ≤ 0.2
160 | LLQT | ≤ 0.2
161 | QALK | ≤ 0.2
162 | HFHS | ≤ 0.2
163 | SCGH | ≤ 0.2
164 | DRAM | ≤ 0.2
165 | QQPH | ≤ 0.2
166 | DDGR | ≤ 0.2
167 | LSSK | ≤ 0.2
168 | FNTG | ≤ 0.2

Row | Variant | one-hybrid fitness for binding NBS DNA
169 | SRAS | ≤ 0.2
170 | TCQI | ≤ 0.2
171 | LLCS | ≤ 0.2
172 | RMPQ | ≤ 0.2
173 | CKES | ≤ 0.2
174 | EFNC | ≤ 0.2
175 | APKR | ≤ 0.2
176 | VAPG | ≤ 0.2
177 | ILYT | ≤ 0.2
178 | NAII | ≤ 0.2
179 | GVQR | ≤ 0.2
180 | SNTH | ≤ 0.2
181 | NCNG | ≤ 0.2
182 | HLPL | ≤ 0.2
183 | GRHF | ≤ 0.2
184 | TRAA | ≤ 0.2
185 | FECS | ≤ 0.2
186 | PMYS | ≤ 0.2
187 | CITR | ≤ 0.2
188 | LREK | ≤ 0.2
189 | DKNK | ≤ 0.2
190 | NELY | ≤ 0.2
191 | RLQT | 0.462
192 | TCMN | ≤ 0.2

Row | Variant | one-hybrid fitness for binding NBS DNA
193 | PSPF | ≤ 0.2
194 | VVIL | ≤ 0.2
195 | VRSY | ≤ 0.2
196 | VKSL | ≤ 0.2
197 | GRCS | ≤ 0.2
198 | QVKV | 0.213
199 | ILSL | ≤ 0.2
200 | TQRG | ≤ 0.2
201 | RGAH | ≤ 0.2
202 | GRPC | ≤ 0.2
203 | YFKR | ≤ 0.2
204 | AHWT | ≤ 0.2
205 | AHDR | ≤ 0.2
206 | PWYG | ≤ 0.2
207 | GKAS | ≤ 0.2
208 | ILWI | ≤ 0.2
209 | RFVA | ≤ 0.2
210 | EIQS | ≤ 0.2
211 | QWRH | ≤ 0.2
212 | TISG | ≤ 0.2
213 | SMAS | ≤ 0.2
214 | PGWG | ≤ 0.2
215 | HPVA | ≤ 0.2
216 | QDTW | ≤ 0.2

Row | Variant | one-hybrid fitness for binding NBS DNA
217 | AHHA | ≤ 0.2
218 | CYRN | ≤ 0.2
219 | FPVI | ≤ 0.2
220 | VQVR | ≤ 0.2
221 | TVLW | ≤ 0.2
222 | YNIG | ≤ 0.2
223 | FETE | ≤ 0.2
224 | KAYY | ≤ 0.2
225 | TNTA | ≤ 0.2
226 | MSSI | ≤ 0.2
227 | AEVW | ≤ 0.2
228 | VSQC | ≤ 0.2
229 | EASF | ≤ 0.2
230 | PPQG | ≤ 0.2
231 | SMIK | ≤ 0.2
232 | TKAY | ≤ 0.2
233 | QNFF | ≤ 0.2
234 | HTAK | ≤ 0.2
235 | RFMP | ≤ 0.2
236 | LEES | ≤ 0.2
237 | LYKS | ≤ 0.2
238 | QFTV | ≤ 0.2
239 | NRKW | ≤ 0.2
240 | ANTR | ≤ 0.2

Row | Variant | one-hybrid fitness for binding NBS DNA
241 | QNAC | ≤ 0.2
242 | VKWR | ≤ 0.2
243 | DCQS | ≤ 0.2
244 | YKDS | 0.297
245 | SPQF | ≤ 0.2
246 | CCAG | ≤ 0.2
247 | CNMK | ≤ 0.2
248 | SHHS | ≤ 0.2
249 | SEAP | ≤ 0.2
250 | QTSM | 0.232
251 | QHLI | ≤ 0.2
252 | SKRY | ≤ 0.2
253 | NMYV | ≤ 0.2
254 | PQVR | ≤ 0.2
255 | RPYC | ≤ 0.2
256 | SKVR | ≤ 0.2
257 | PPQL | ≤ 0.2
258 | RVQG | ≤ 0.2
259 | FWTT | ≤ 0.2
260 | HCNT | ≤ 0.2
261 | LRIL | ≤ 0.2
262 | TQSY | ≤ 0.2
263 | CWVA | ≤ 0.2
264 | FLHT | ≤ 0.2

Row | Variant | one-hybrid fitness for binding NBS DNA
265 | LPTQ | ≤ 0.2
266 | MEFT | ≤ 0.2
267 | QVFC | ≤ 0.2
268 | VIAC | ≤ 0.2
269 | MLWT | ≤ 0.2
270 | LAQF | ≤ 0.2
271 | RQSE | ≤ 0.2
272 | VGVI | ≤ 0.2
273 | KMWS | ≤ 0.2
274 | LVAP | ≤ 0.2
275 | TWDG | ≤ 0.2
276 | PSHG | ≤ 0.2
277 | QCIM | ≤ 0.2
278 | EEGV | ≤ 0.2
279 | VYKM | ≤ 0.2
280 | QVVA | ≤ 0.2
281 | SMGR | ≤ 0.2
282 | NGGC | ≤ 0.2
283 | YGWT | ≤ 0.2
284 | FCSG | ≤ 0.2
285 | VLLH | ≤ 0.2
286 | SSWW | ≤ 0.2
287 | NSRI | ≤ 0.2
288 | CNSM | ≤ 0.2

Row | Variant | one-hybrid fitness for binding NBS DNA
289 | MPVF | ≤ 0.2
290 | FMWV | ≤ 0.2
291 | DIHL | ≤ 0.2
292 | QQQE | ≤ 0.2
293 | VKLF | ≤ 0.2
294 | INEV | ≤ 0.2
295 | CAKW | ≤ 0.2
296 | TLSG | ≤ 0.2
297 | CVSW | ≤ 0.2
298 | AWWW | ≤ 0.2
299 | DPLL | ≤ 0.2
300 | VVDG | ≤ 0.2
301 | RSQS | 0.433
302 | DSSP | ≤ 0.2
303 | RFWL | ≤ 0.2
304 | QDGR | ≤ 0.2
305 | VYSH | ≤ 0.2
306 | HTFT | ≤ 0.2
